About 25,000 (6.9%) of roughly 360,000 compounds were called active. This list was built around the results that the source calls inconclusive (neither active nor inactive); the mix of calls is not that of the screen. Calls follow the shape of the dose curve; as a rule, active = well fitted inhibition curve with a large enough effect; inconclusive = small, poorly fitted or top-dose-only effect; inactive = flat fitted curve, though single readings scatter. Potencies beside an inconclusive call are fits to weak or partial responses and may not hold up.
target: Luciferin 4-monooxygenase (Photinus pyralis) (UniProt P08659); assay: qHTS profiling assay for firefly luciferase inhibitor/activator using purifed enzyme and Km concentrations of substrates (counterscreen for miR-21 project); settings: purified FLuc, luminescence inhibition; series mostly up to 57.5 µM; activity change, negative = inhibition: at the top concentration; also: nearly all actives have a fitted effect of over 55% in size;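 as to activity change, negative = inhibition: plate controls were vehicle for no effect and reference inhibitor for full effect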
Chain of UniProt P08659 (P08659 whole entry, looked up): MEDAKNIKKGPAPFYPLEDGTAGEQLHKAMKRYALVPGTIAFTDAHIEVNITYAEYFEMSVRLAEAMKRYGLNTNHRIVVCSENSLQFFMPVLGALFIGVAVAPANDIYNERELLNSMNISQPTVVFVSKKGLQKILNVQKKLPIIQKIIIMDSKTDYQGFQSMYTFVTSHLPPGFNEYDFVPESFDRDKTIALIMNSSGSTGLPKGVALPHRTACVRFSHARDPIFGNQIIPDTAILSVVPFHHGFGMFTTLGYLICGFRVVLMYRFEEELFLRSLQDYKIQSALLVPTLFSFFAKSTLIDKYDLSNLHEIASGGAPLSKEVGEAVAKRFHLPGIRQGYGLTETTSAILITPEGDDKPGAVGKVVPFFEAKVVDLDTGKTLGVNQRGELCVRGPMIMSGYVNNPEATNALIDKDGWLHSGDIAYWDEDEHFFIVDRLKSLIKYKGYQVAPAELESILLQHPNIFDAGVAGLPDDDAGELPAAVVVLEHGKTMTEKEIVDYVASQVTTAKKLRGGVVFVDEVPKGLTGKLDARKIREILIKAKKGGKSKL
In short: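 Purified P. pyralis luciferase, 10 nM final, with Km-level 10 uM D-luciferin and 10 uM ATP in 50 mM Tris acetate pH 7.5, 10 mM Mg acetate, 0.01% Tween-20, 0.05% BSA; 6-point qHTS titration about 60 µM downward; luminescence read.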
Potency is read from the fitted curve at half-maximal effect; tags tell the direction and shape of the fitted curve.

Row | Structure (SMILES) | activity change, negative = inhibition | Potency
1 | Cc1ccc2oc(=O)n(CCCOc3ccc(Cl)cc3)c2c1 | inactive: -13.4% | 
2 | COc1ccc(C)cc1NC(=S)NNC(=O)c1c(Br)cnn1C |  | active: 26.9 µM
3 | Cc1ccc(C(=O)Nn2cnc3ccccc3c2=O)cc1C |  | active: 13.5 µM
4 | CCCN1Cc2cccc(C(=O)Nc3ccc(-c4nc5ccccc5[nH]4)cc3)c2C1=O |  | inconclusive: 37.9 µM [inhibitor, partial curve, poor fit]
5 | COc1ccc(/C=N/NC(=O)c2cccc(NC(=O)c3ccccc3)c2)c(C(=O)O)c1OC |  | inconclusive: 21.3 µM [inhibitor, single point]
6 | Cc1ccc(CCNC(=O)c2ccc(CSCc3ccccc3Cl)o2)cc1 |  | inconclusive: 33.8 µM [inhibitor, partial curve, poor fit]
7 | CCOc1ccc(NC(=O)Cn2c(=O)oc3cc(S(=O)(=O)N4CCCCCC4)ccc32)cc1 |  | inconclusive: 12 µM [inhibitor, partial curve, poor fit]
8 | CCOc1ccc2nc(N=NC3=C(O)CC(C)(C)CC3=O)sc2c1 |  | inconclusive: 26.9 µM [inhibitor, partial curve]
9 | Cc1ccc(N(C)S(=O)(=O)c2nnc(NC(=O)C3CCCCC3)s2)cc1 |  | inconclusive: 16.9 µM [inhibitor, partial curve]
10 | CCOCc1nnc(NC(=O)c2cccc(OC)c2)s1 |  | inconclusive: 37.9 µM [inhibitor, partial curve, poor fit]
11 | COc1cccc(/C=C2\SC(=S)N(CCCC(=O)Nc3ccc(C(=O)O)cc3)C2=O)c1 |  | active: 21.3 µM
12 | Cn1cnnc1SCC(=O)Nc1ccc2ccccc2c1 |  | inconclusive: 23.9 µM [inhibitor, partial curve, poor fit]
13 | CCn1c(SCC(=O)N/N=C/C=C/c2ccco2)nnc1-c1ccccc1 |  | inconclusive: 37.9 µM [inhibitor, single point]
14 | C=CCN1C(=O)/C(=c2\sc3nc(=O)c(Cc4ccccc4Cl)nn3c2=O)c2ccccc21 |  | inconclusive: 37.9 µM [inhibitor, single point]
15 | O=C(CN1C(=O)/C(=C\c2cccc(Br)c2)Oc2ccccc21)NCCCN1CCOCC1 |  | active: 6.75 µM
16 | COc1ccc(NC(=O)c2sc3nc4n(c(=O)c3c2C)CCC4)cc1Cl | inactive: 7.33% | 
17 | Cn1c(SCC(N)=O)nnc1-c1ccc(C(C)(C)C)cc1 |  | inconclusive: 37.9 µM [inhibitor, partial curve, poor fit]
18 | O=C(CCCOc1ccc(Cl)cc1Cl)N1CCCc2ccccc21 |  | inconclusive: 19 µM [inhibitor, partial curve]
19 | O=C(O)c1ccc(Nc2nc(-c3cc4ccccc4oc3=O)cs2)cc1O |  | active: 4.78 µM
20 | CC1CCN(C(=O)c2ccc3c(c2)OCCO3)CC1 |  | inconclusive: 19 µM [inhibitor, partial curve, poor fit]
21 | COc1ccc(CCNC(=O)c2ccc3c(c2)N(Cc2cccc(Cl)c2)C(=O)CS3)cc1OC | inactive: -16.5% | 
22 | COc1ccc(Cl)cc1NC(=O)CN(c1cccc(C)c1C)S(=O)(=O)c1ccccc1 | inactive: -5.37% | 
23 | Cc1cccc(Nc2ccccc2C(=O)NCc2ccco2)c1C | inactive: 3.31% | 
24 | O=C(NCc1ccc(Cl)cc1)c1cnc2sc(N3CCCC3)nn2c1=O | inactive: 2.41% | 

Row | Structure (SMILES) | activity change, negative = inhibition | Potency
25 | COc1cc(C)ccc1OCCn1c(-c2ccc(Cl)cc2)nc2ccccc2c1=O | inactive: -2.6% | 
26 | COc1ccc(-n2ncc3c(SCC(=O)N4CCN(c5ccccc5OC)CC4)ncnc32)cc1 |  | inconclusive: 3.01 µM [inhibitor, full curve]
27 | COc1ccc(Cn2c(SCc3ccc(C(=O)NCc4cccs4)cc3)nc3cccnc32)cc1 |  | inconclusive: 10.7 µM [inhibitor, partial curve]
28 | CCOc1ccccc1NC(=O)NCc1ccc2c(c1)OCO2 |  | inconclusive: 37.9 µM [inhibitor, single point]
29 | CCOC(=O)c1c(N)sc(C(C)=O)c1C |  | inconclusive: 37.9 µM [inhibitor, partial curve, poor fit]
30 | Cc1nc(NC(=O)c2ccccc2)sc1-c1csc(Nc2cccc(Cl)c2)n1 |  | inconclusive: 10.7 µM [inhibitor, partial curve]
31 | COc1ccc(N=C2NN=C(c3c(C)[nH]c4ccccc34)CS2)cc1 |  | inconclusive: 23.9 µM [inhibitor, single point]
32 | NNC(=O)Cn1c(SCc2ccccc2)nc2ccccc21 |  | inconclusive: 37.9 µM [inhibitor, single point]
33 | O=C(O)c1cc(N/N=C/C=C/c2ccccc2[N+](=O)[O-])ccc1Cl |  | active: 19 µM
34 | Fc1ccccc1Nc1nc2ccccc2n2nnnc12 |  | inconclusive: 26.9 µM [inhibitor, partial curve, poor fit]
35 | CC(=O)Oc1ccc(OC(C)=O)c2c1CC(C)=C(C)C2 |  | inconclusive: 21.3 µM [inhibitor, partial curve, poor fit]
36 | CCC(=O)c1cc(F)c(N2CCN(S(=O)(=O)c3ccc(C)cc3)CC2)cc1C | inactive: 4.58% | 
37 | COc1ccc(S(=O)(=O)Nc2ccccc2OC)cc1NC(=O)c1cc2ccccc2oc1=O |  | active: 12 µM
38 | O=C(c1cc2nc(-c3ccccc3)cc(C(F)(F)F)n2n1)N1CCOCC1 |  | inconclusive: 37.9 µM [inhibitor, partial curve, poor fit]
39 | O=C(O)c1ccc(/C=C/c2ccc3cccc(O)c3n2)cc1 |  | active: 2.39 µM
40 | O=C(NN=C1CCCC1)c1ccccc1O |  | inconclusive: 26.9 µM [inhibitor, partial curve]
41 | Cc1ccc(/C=C/C(=O)NCCCc2ccccc2)cc1 | inactive: -26% | 
42 | Oc1ccc(Cl)cc1/C=C/c1ccc2cccc(O)c2n1 |  | active: 21.3 µM
43 | CN(C)S(=O)(=O)c1ccc(C(=O)NC2CC(=O)N(c3ccc4c(c3)OCCO4)C2)cc1 (stereo not given) | inactive: 1.41% | 
44 | CCC1(C)Cc2c(sc3nc(NN)n(C)c(=O)c23)CO1 (stereo not given) |  | inconclusive: 30.1 µM [inhibitor, partial curve, poor fit]
45 | Cc1cnc(NC(=O)c2cccs2)s1 |  | active: 10.7 µM
46 | O=C(O)COc1ccccc1/C=N/NC(=O)Cc1csc(Nc2cccc(C(F)(F)F)c2)n1 |  | inconclusive: 21.3 µM [inhibitor, partial curve, poor fit]
47 | O=C(Nc1ccccc1)Nc1cc(Cl)cc(Cl)c1 |  | active: 26.9 µM
48 | COc1cc(/C=C2/C(=O)N(c3ccc(Br)cc3)N=C2C)cc([N+](=O)[O-])c1O |  | inconclusive: 37.9 µM [inhibitor, single point]

Row | Structure (SMILES) | activity change, negative = inhibition | Potency
49 | O=C(CN1CCC(c2nc3ccccc3s2)CC1)NCc1ccccc1 |  | inconclusive: 37.9 µM [inhibitor, single point]
50 | CCC1(c2ccc(F)cc2)NC(=O)N(CC(=O)Nc2ccccc2C)C1=O (stereo not given) | inactive: 2.3% | 
51 | Oc1cccc2ccc(/C=C/c3c(F)cccc3Cl)nc12 |  | active: 3.01 µM
52 | COc1cc(OC)c(NC(=O)CC(=O)Nc2cc(Cl)c(OC)cc2OC)cc1Cl |  | inconclusive: 37.9 µM [inhibitor, partial curve, poor fit]
53 | CCOC(=O)c1sc(NC(=O)CSc2n[nH]c(-c3ccccc3)n2)c(C#N)c1C |  | inconclusive: 37.9 µM [inhibitor, partial curve, poor fit]
54 | Cc1cc(=O)oc2cc(OC(C)C(=O)N3CCCc4ccccc43)ccc12 (stereo not given) |  | inconclusive: 42.6 µM [inhibitor, partial curve, poor fit]
55 | CC1(C)CC(=O)C2(CC3=C(CC(C)(C)CC3=O)O2)C(=O)C1 | inactive: -2.05% | 
56 | O=C(/C=C/c1ccco1)c1ccc(NC(=O)C23CC4CC(CC(C4)C2)C3)cc1 |  | inconclusive: 6.75 µM [inhibitor, partial curve]
57 | CNC(C)C#Cc1ccc2sc3cccc(OC)c3c(=O)c2c1 (stereo not given) |  | inconclusive: 26.9 µM [inhibitor, single point]
58 | Oc1c(N=Nc2ccccn2)ccc2ccccc12 |  | active: 1.35 µM
59 | Oc1ccc(Nc2nc3ccccc3nc2Nc2ccc(O)cc2)cc1 |  | inconclusive: 23.9 µM [inhibitor, partial curve, poor fit]
60 | CCCCSCCCNC(=O)Nc1ccc(CC)cc1 |  | inconclusive: 26.9 µM [inhibitor, partial curve, poor fit]
61 | C/C(=N/NC(=O)c1ccncc1)c1ccc(NC(=O)c2ccc(Cl)cc2Cl)cc1 |  | inconclusive: 30.1 µM [inhibitor, partial curve, poor fit]
62 | CCCCn1c(N)c(N(CCOC)C(=O)COC(=O)COc2cc(C)c(Cl)cc2C(C)C)c(=O)[nH]c1=O | inactive: -0.972% | 
63 | CCOC(=O)c1c(C)[nH]c(C(=O)OCC(=O)N2CCN(S(=O)(=O)c3ccc(C)cc3C)CC2)c1C | inactive: -0.132% | 
64 | CC(=O)c1ccccc1NCC(=O)Nc1ccc(C)cc1 |  | inconclusive: 26.9 µM [inhibitor, single point]
65 | CC(=O)c1ccc(N(CC(=O)NC2CCCC2)C(=O)CNC(=O)c2cccs2)cc1 | inactive: -3.98% | 
66 | COCC(C)NC(=O)COCc1cc(-c2ccc3c(c2)OCO3)on1 (stereo not given) |  | inconclusive: 37.9 µM [inhibitor, partial curve, poor fit]
67 | COc1ccc(CC(=O)Nc2cccc(-c3ccc4nncn4n3)c2)cc1OC | inactive: 3.56% | 
68 | CCOc1ccc(CCNC(=O)Cn2ncc3c(=O)oc4ccc(C)cc4c32)cc1 | inactive: 0.0331% | 
69 | O=C(c1ccc(CSc2nc3ccncc3n2Cc2cccc(F)c2)cc1)N1CCCCC1 |  | inconclusive: 30.1 µM [inhibitor, partial curve, poor fit]
70 | Cc1ccc(S(=O)(=O)N2CCC(=O)N(C(COCc3cccc(C(F)(F)F)c3)C(C)C)CC2)cc1 (stereo not given) | inactive: -0.536% | 

Source: PubChem BioAssay AID588342 (National Center for Advancing Translational Sciences (NCATS), 2011)
